Data: PubChem BioAssay AID493035 (The Scripps Research Institute Molecular Screening Center, 2011)
Where “and” joins values, the source holds several entries; their conditions need not be identical. Equal entries are not always repeated. Screen size: about 2,000 compounds; about 45 (2%) were called active.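 How the source made its calls: active means inhibition above the mean of all tested compounds plus 3 SD (cut at about 49% in these data); inactive means the rest.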 The list shows a part of the results.

The molecules below were run against Perilipin-5 (Homo sapiens) + 1-acylglycerol-3-phosphate O-acyltransferase ABHD5 (Homo sapiens) (UniProt Q00G26+Q8WTS1) (assay: ABHD5-PLIN5 interaction inhibitors, pilot screen, cell lysate, split luciferase complementation, luminescence, NIH validation set (AID 493035;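 further: 0% = DMSO only wells while the 100% control is not stated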)). Settings: split G. princeps luciferase complementation, lysates, 4 h; at 7.9 µM, stronger effect = higher value.
Chain of UniProt Q00G26 (Q00G26 whole entry, looked up): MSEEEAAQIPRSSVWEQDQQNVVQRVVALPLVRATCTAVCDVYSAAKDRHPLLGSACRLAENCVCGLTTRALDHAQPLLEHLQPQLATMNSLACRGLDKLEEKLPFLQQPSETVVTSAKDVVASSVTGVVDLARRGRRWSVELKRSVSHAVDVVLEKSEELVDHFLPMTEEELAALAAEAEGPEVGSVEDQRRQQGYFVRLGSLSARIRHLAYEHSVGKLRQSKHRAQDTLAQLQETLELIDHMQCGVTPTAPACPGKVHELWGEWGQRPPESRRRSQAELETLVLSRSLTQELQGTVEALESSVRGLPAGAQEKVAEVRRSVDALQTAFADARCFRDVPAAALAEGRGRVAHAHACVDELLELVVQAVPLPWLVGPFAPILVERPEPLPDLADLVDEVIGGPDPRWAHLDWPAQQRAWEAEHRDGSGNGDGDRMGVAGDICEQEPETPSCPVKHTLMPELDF
Chain of UniProt Q00G26 (Q8WTS1 whole entry, looked up): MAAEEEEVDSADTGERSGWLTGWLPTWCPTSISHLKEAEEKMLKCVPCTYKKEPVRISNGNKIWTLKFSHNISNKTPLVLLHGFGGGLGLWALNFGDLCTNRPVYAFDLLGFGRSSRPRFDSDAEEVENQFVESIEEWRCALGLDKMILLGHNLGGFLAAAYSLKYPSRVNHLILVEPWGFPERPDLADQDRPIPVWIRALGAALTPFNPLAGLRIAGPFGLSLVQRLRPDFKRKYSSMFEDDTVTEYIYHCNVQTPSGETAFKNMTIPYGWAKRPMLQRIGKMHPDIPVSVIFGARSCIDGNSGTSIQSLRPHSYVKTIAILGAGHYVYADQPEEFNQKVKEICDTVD

Structure (SMILES) | inhibition
CC12CN3CC(C)(CN(C1)C3c1ccc([N+](=O)[O-])o1)C2 (configuration not stated) | inactive: -0.18%
COc1ccc(CCN2C(=O)CSC2c2ccc(OC)c(OC)c2)cc1OC (configuration not stated) | inactive: -0.94%
Clc1ccc2c(c1)CCc1cccnc1C2=C1CCNCC1 | inactive: -8.07%
CC(=O)[C@@]1(O)CC[C@H]2[C@@H]3CCC4=CC(=O)CC[C@]4(C)[C@H]3CC[C@@]21C | inactive: 0.76%
CC(C)CC(=O)N(Cc1ccc(F)cc1)C1CCS(=O)(=O)C1 (configuration not stated) | inactive: 1.18%
COc1ccccc1NC(=O)Cn1c(C)cc(=O)c2cccc(OC)c21 | inactive: 6.78%
O=C(/C=C/c1ccc(Cl)cc1)NCCc1ccccc1 | inactive: 1.1%
COc1ccc(-c2nc3c(=O)n(C)c(=O)[nH]c3n2CCc2ccccc2)cc1 | inactive: 0.59%
CCN(CC)C(=O)c1ccc(O)c(OC)c1 | inactive: 1.69%
CCC(C(=O)Nc1ccc2c(c1)OCCO2)c1ccccc1 (configuration not stated) | inactive: 0.82%
Cc1ccc(C2CC(=O)C(C=NCCN3CCN(C(=S)Nc4ccccc4)CC3)=C(O)C2)cc1 (configuration not stated) | inactive: -7.35%
COc1ccc(C2C(C#N)=C(N)Oc3cc(C)[nH]c(=O)c32)c(OC)c1OC (configuration not stated) | inactive: -1.64%
CCC1(c2ccccc2)C(=O)NCNC1=O | inactive: 7.74%
O=C(CSCc1ccccc1)NCCCN1CCOCC1 | inactive: -11.4%
CCOc1ccc(NC(=O)N[C@@H](CCSC)C(=O)OC)cc1 | inactive: -13.2%
Cc1oc2ccc(OC(=O)c3cccs3)cc2c1C(=O)OC(C)C | inactive: 7.07%
C[C@]12CCC(=O)C=C1CC[C@@H]1[C@@H]2CC[C@@]2(C)[C@H]1CC[C@]2(O)C(=O)CO | inactive: 2.63%
COc1ccc(C2NCCC3(O)CCCCC23)c(OC)c1OC (configuration not stated) | inactive: -0.22%
c1ccc(-c2ccc(C(c3ccccc3)n3ccnc3)cc2)cc1 (configuration not stated) | inactive: 8.03%
CN(C)CCC(c1ccc(Br)cc1)c1ccccn1 (configuration not stated) | inactive: -8.69%
CC(=O)NC1C(OCc2ccccc2)OC(COC(C)=O)C(OC(C)=O)C1OC(C)=O (configuration not stated) | inactive: 8.83%
Nc1cnn(C2OC(CO)C(O)C2O)c(=O)n1 (configuration not stated) | inactive: -8.82%
Cc1ccc(OCc2nc(-c3cccnc3)no2)cc1C | inactive: 6.45%
O=C(OCC1OC2OC3(CCCCC3)OC2C2OC3(CCCCC3)OC12)c1ccccc1 (configuration not stated) | inactive: -4.03%
c1ccc2c3c(c(CN4CCCCC4)cc2c1)COC3 | inactive: -1.55%

Structure (SMILES) | inhibition
Cc1ccc(CSCC(=O)N2CCCC2)cc1 | inactive: 2.89%
Cc1cc(-c2nn(-c3ccccc3F)cc2CN2CCC(O)CC2)c(C)s1 | inactive: -1.57%
OC(COCc1ccccc1)CN1CCN(Cc2ccc3c(c2)OCO3)CC1 (configuration not stated) | inactive: -8.73%
O=C(NCC1CCCO1)c1ccc(OC2CCN(C(=O)C3CC3)CC2)cc1 (configuration not stated) | inactive: 4.94%
O=C(O)C1CCN(C(=O)COc2ccc3c4c(c(=O)oc3c2)CCC4)CC1 | inactive: -5.81%
CC1(C)CC(C(CC(=O)N2CCCC2)Cc2ccccc2)CCO1 (configuration not stated) | inactive: -10.3%
CC1=NS(=O)(=O)c2cc(Cl)ccc2N1 | inactive: -7.28%
CC(C)NCC(O)COc1ccc(CC(N)=O)cc1 (configuration not stated) | inactive: 2%
CCOC(=O)[C@H]1O[C@@H]1C(=O)N[C@@H](CC(C)C)C(=O)NCCC(C)C | inactive: -12%
CC[C@H](CO)NCCN[C@H](CC)CO | inactive: 2.49%
Cc1ccccc1NC(=O)C1(C)Cc2ccccc2C(=O)O1 (configuration not stated) | inactive: -1.99%
CCN(CC)CCOC(=O)C(c1ccccc1)c1ccccc1 | inactive: -1.8%
OC(CCCN1CCCCC1)(c1ccccc1)c1ccccc1 | inactive: 7.85%
COc1ccccc1NC(=O)C12CCC(C)(C(=O)C1)C2(C)C (configuration not stated) | inactive: 2.61%
C[C@]12CC[C@@H]3c4ccc(OS(=O)(=O)O)cc4CC[C@H]3[C@@H]1CCC2=O | inactive: -0.42%
COC1(C)CC2C(CC1OC(=O)c1cc([N+](=O)[O-])cc([N+](=O)[O-])c1)C2(C)C (configuration not stated) | inactive: 22.8%
COc1ccc(CCn2c(C)nc3c(c(=O)c4ccccc4n3C)c2=O)cc1 | inactive: 11%
Cc1ccc(S(=O)(=O)NC(=O)NN2CCCCCC2)cc1 | inactive: -4.11%
COc1ccc(C=O)c(OC)c1 | inactive: -0.72%
Cc1ccsc1/C=C/C1=NCCCN1C | inactive: 0.45%
Fc1cc(F)cc(NC(=S)NCCCN2CCOCC2)c1 | inactive: 1.08%
CCCCC[C@H](O)/C=C/[C@@H]1[C@@H](C/C=C\CCCC(=O)OC)[C@@H](O)C[C@H]1O | inactive: -13.5%
Cn1nc(-c2ccccn2)nc2c(=O)n(C)c(=O)nc1-2 | inactive: 10.9%
CCN(CC)CCNc1ccc(CO)c2sc3ccccc3c(=O)c12 | inactive: 8.06%
Cc1ccc(O)c(CCc2ccccc2)n1 | inactive: -5.08%

Structure (SMILES) | inhibition
CSc1ccc2c(c1)N(CCC1CCCCN1C)c1ccccc1S2 (configuration not stated) | inactive: -4.78%
Cc1cc(-c2nn(-c3ccccc3F)cc2CN2CCCC(O)C2)c(C)s1 (configuration not stated) | inactive: -7.93%
OCCN(Cc1nc(-c2ccc3c(c2)OCO3)no1)Cc1cccs1 | inactive: 4.31%
Cc1cc(-c2ccccc2)nnc1NCCN1CCOCC1 | inactive: -10.7%
COc1cc2c(cc1OC)CN(C(=O)c1ccc(S(=O)(=O)N(C)c3ccccc3)cc1)CC2 | inactive: 6.35%
CCOc1ccccc1C(=O)NCCC(=O)O | inactive: -0.11%
OC[C@H]1O[C@@H](n2cnc3c(Nc4ccccc4)ncnc32)[C@H](O)[C@@H]1O | inactive: -6.85%
C=CCNC(=S)N1CCc2c([nH]c3ccccc23)C1C (configuration not stated) | inactive: -7.62%
O=C(OCCN1CCOCC1)c1cccs1 | inactive: 5.45%
O=c1nc2sc3ccccc3n2c(=O)n1-c1ccc(Cl)cc1 | inactive: 5.72%
CCCC(CCC)C(=O)OC1C[C@H]2CC[C@@H](C1)[N+]2(C)C (some centres not stated) | inactive: -9.28%
c1ccc(Cn2ncc3c(Nc4ccccc4)ncnc32)cc1 | inactive: -6.21%
O=C(O)CCCCCN1C(=O)C(=O)/C(=C(/O)c2ccccc2)C1c1ccccc1 (configuration not stated) | inactive: -14.1%
Cn1c2c(c(=O)[nH]c1=O)C(c1ccc(O)cc1)C1=C(N2)c2ccccc2C1=O (configuration not stated) | inactive: 5.88%
O=c1c2ccccc2nc2n1-c1ccccc1CCC2 | inactive: -0.31%
CN(C)CCOCCOc1ccc(Cl)cc1Br | inactive: -2.82%
CCc1ccc(CN(C)Cc2nc(Cc3ccccc3)no2)nc1 | inactive: 9.41%
CC(COc1ccccc1)NC(C)C(O)c1ccc(O)cc1 (configuration not stated) | inactive: -1.77%
CC(=O)Nc1nc(CCC(C)C)cc2c1c(=O)oc1ccccc12 | inactive: -9.8%
CC(C)(C)c1ccc(C(O)CCCN2CCC(C(O)(c3ccccc3)c3ccccc3)CC2)cc1 (configuration not stated) | inactive: -14.5%
Cc1nonc1CN(C)C(=O)c1ccc(OC2CCN(Cc3ccccn3)CC2)cc1 | inactive: -4.67%
COc1ccc(-c2onc(C)c2-c2ccc(C(=O)OC(C)C)o2)c(O)c1 | inactive: -9.38%
O=C(Oc1cccccc1=O)c1ccccc1 | inactive: -14.5%
CCN1/C(=C/C=C/C=C/c2sc3ccccc3[n+]2CC)Sc2ccccc21 | active: 70.5%
O=C1C(=O)N2C(=C1C(=O)N1CCCCCC1)c1ccccc1CC21CCCC1 | inactive: 0.84%

Structure (SMILES) | inhibition
O=C(CN1C(=O)c2ccccc2C1=O)Nc1cccc([N+](=O)[O-])c1 | inactive: -10.8%
O=c1[nH]cnc2c1ncn2[C@@H]1O[C@H](CO)[C@@H](O)[C@H]1O | inactive: 1.49%
CCc1nc2ccccc2n1Cc1ccc(OC)c(OC)c1 | inactive: 0.83%
O=C(O)C[C@@H](O)C(=O)O | inactive: -4.2%
CC(=O)Oc1ccc2occ(/C=N/c3cc(=O)[nH]c(=S)[nH]3)c(=O)c2c1 | inactive: 3.16%
O=c1ccc2ccccc2o1 | inactive: -11%
CC1(C)CC(CNCCC(c2ccc(F)cc2)c2ccco2)CCO1 (configuration not stated) | inactive: -10.4%
CN(C)CCCN1c2ccccc2Sc2ccc(Cl)cc21 | inactive: -3.85% and inactive: -9.65%
COc1ccc(C(=O)Nc2cccc3cccnc23)cc1OC | inactive: 3.39%
CCOc1cc2c(cc1OCC)C(c1ccccc1)N(c1ccc(C(=O)O)cc1)C(=O)C2 (configuration not stated) | inactive: 5.15%
O=C(CCN1CCC(c2ccccc2)C1)c1ccc2c(c1)OCCO2 (configuration not stated) | inactive: 17.6%
c1ccc(Cn2nnc3cnccc32)cc1 | inactive: 0.38%
CCOc1ccc(C(=O)/C=C/c2cc(OC)c(OC)c(OC)c2)cc1 | inactive: 33.3%
COc1ccc(NC(=O)CC2C(=O)N(C)C(=S)N2Cc2ccncc2)cc1 (configuration not stated) | inactive: -3.37%
Nc1ccn([C@@H]2O[C@H](CO)[C@@H](O)[C@@H]2O)c(=O)n1 | inactive: -0.98%
NC(N)=N/N=C/c1cccc(Cl)c1Cl | inactive: -13.9%
COc1cc2c(cc1OC)-c1cc(NC3CCCCCC3)nc(=O)n1CC2 | inactive: 8.14%
COc1ccc(CCN=CC2=C(O)CC(C)(C)CC2=O)cc1 | inactive: -10.3%
C=CCNC(=O)c1ccc(-c2cccc([N+](=O)[O-])c2)o1 | inactive: -13.6%
CC(C)CCC1(CCNC(C)c2cccs2)CCOC(C)(C)C1 (configuration not stated) | inactive: -7.41%
COc1ccc(CC(=O)c2c(O)cc(O)cc2O)cc1OC | inactive: -3.19%
C[C@@H]1C[C@H]2[C@@H]3C[C@H](F)C4=CC(=O)C=C[C@]4(C)[C@@]3(F)[C@@H](O)C[C@]2(C)[C@@]1(O)C(=O)COC(=O)C(C)(C)C | inactive: -1.96%
